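Each compound was tested at five concentrations against cells in 96-well plates for 48 hours. GI50 marks 50% less growth. Definition used: TGI = concentration required for complete inhibition of growth.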

These results are taken from PubChem BioAssay (NCI).

The test has as its system NCI-H322M lung. The test can be described thus: inhibition of tumour cell growth, NCI panel, 48 h.
Regarding `CC(C)C[C@H]1C(=O)O[C@H](C(C)C)C(=O)N(C)[C@@H](C(C)C)C(=O)O[C@H](C(C)C)C(=O)N(C)[C@@H](C(C)C)C(=O)O[C@H](C(C)C)C(=O)N1C`, the GI50 is 2.82 µM and the TGI was > 10 µM.

Consider `Cc1ccc(-c2nc(C(Cl)Cl)nc3cc(-c4ccccc4)nn23)cc1`, for which the GI50 is 9.14 µM and the TGI stood at 37.2 µM.

`OC1CCN(CCCOc2c3ccc(Cl)cc3nc3c2oc2ccc(Cl)cc23)CC1`: the GI50 is 1.16 µM and the TGI amounted to 15.8 µM.
